The values below come from paper PMC12136788.

This is one part of the list.

First the molecules themselves.
T1: UNK ZnF1-3 (human, UniProt Q9C0B0 31-174)
T1 sequence: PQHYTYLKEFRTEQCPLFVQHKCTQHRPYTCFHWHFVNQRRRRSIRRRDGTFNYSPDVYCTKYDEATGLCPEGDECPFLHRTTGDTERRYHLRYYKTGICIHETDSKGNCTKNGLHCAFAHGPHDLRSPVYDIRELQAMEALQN

B1: chr4:148551591:148551592:-_ENSMUSG00000063077_ENSMUST00000060537|mus_hu|mus_mus_mus_hu_False|1_58 (ssRNA)
RNA: GGGAGUUCUACAGUCCGACGAUCACCUGACAAAAUUAAAUAUCCCUGUAAAUUAGACAAUAAGCAGCAGGCAACAAAGUCUAUGCUUUGGAAUAUGUGCCAGGAAAAGUCAUCUUGUUUUUAGAUCUCAAGAGACACAACCAUCAACAGAGGAUUGAGCAUCA
B2: chr2:216981417:216981418:+_ENSG00000079246_ENST00000392132|hu_hu|hu_hu_hu_mus_True|8_68 (ssRNA)
RNA: GGGAGUUCUACAGUCCGACGAUCCUGAUACUGGUCCUUGCCAGCAAGGGCAUUAUCAGUGCCAUCUGUACCAAACAGGACUAACGCAAUCUCAUCUUUGCUCUCCGAAAAUACCUGUCGUUGGACAAACAUGGUUAUCACUUUCAACAGAGGAUUGAGCAUCA
B3: chr14:34206250:34206251:-_ENSMUSG00000021936_ENSMUST00000111945|mus_hu|motif|central (ssRNA)
RNA: GGGAGUUCUACAGUCCGACGAUCUGCAGUCCUGGCCAGACCGAAGUCAAGAAUCUUCAAAGUGCAAUCAGAUUUUACGGCGGUAUUACUGGGCUUUAAGUCCCGAUGAAUAAUUCCAGCAGAAUGAAGGUGCUUGAUUCCACACAACAGAGGAUUGAGCAUCA
B4: 43599961_43601292_1323_3pUTR_ENSG00000189221_ENST00000338702|human|control|control (ssRNA)
RNA: GGGAGUUCUACAGUCCGACGAUCUCCAUAUUGAGUCAUGAUCCCAGGAGGGAAGUAGGCCGUGUAGCAGCCCCCAGAGUACUGCUCCUCACACCAGUUCUUCUCUUCAUAAUGCACUGGAUGUAAAGCUUCUUGGGAUCCCAGCAACAGAGGAUUGAGCAUCA
B5: 64005715_64005835_4327_CDS_ENSG00000103657_ENST00000443617|human|control|control (ssRNA)
RNA: GGGAGUUCUACAGUCCGACGAUCCUCAGGAAGGUCUGUGCUGACCCUUCGCUCUUGCUGAGACUGAGGAGGUGGAUCAUCAGCUCGAGCCCCAGACCCUGCCCCACUGUUCAUUCUAUCUCGGUCUCGGCUACGAGCUACUUCCAACAGAGGAUUGAGCAUCA
B6: chr11:77340908:77340909:-_ENSG00000074201_ENST00000525064|hu_hu|hu_hu_hu_mus_True|38_108 (ssRNA)
RNA: GGGAGUUCUACAGUCCGACGAUCGUUUCGGUCCCUGGACACCGCAUGUAAACUAAUGGUGGGGUAUUCCAGUGAGAAUCCUAAUCCCGAACCAUCUAACCAAGACAGGCGGCUCUCCGCGAUGUAAAGCGUGCCGGUGCCGAGCAACAGAGGAUUGAGCAUCA
B7: 38068702_38068822_3813_3pUTR_ENSMUSG00000021427_ENSMUST00000021864|mouse|control|control (ssRNA)
RNA: GGGAGUUCUACAGUCCGACGAUCCAUACAAGCACACCGCUAACAAGAAAUGAGAACCAGCUGCUCCUCUCUGAACCGAGUAAGGAUUUACUUAGGAAACACAGGCCAAGUUCACGGACUCGUUACAUGGCUGCCGAUGCUACCCAACAGAGGAUUGAGCAUCA
B8: chr10:33214929:33214930:-_ENSG00000150093_ENST00000302278|hu_hu|hu_hu_hu_mus_True|88_108 (ssRNA)
RNA: GGGAGUUCUACAGUCCGACGAUCAACAAGUUCAUUAAAAAACUCUCCUUUAUUAGUAAGACUAAGCACAUUUUUGUAGCUAAAUGGGCUGGUGCAGUUUUGUUCACUUGUACAAGGAUUUCUUAGCUUUGCUGGGGUUGUGCUCAACAGAGGAUUGAGCAUCA
B9: chr15:23003119:23003120:+_ENSG00000068793_ENST00000560848|hu_mus|motif|central (ssRNA)
RNA: GGGAGUUCUACAGUCCGACGAUCUUAUAAAGUUAAGCUUUCAGAUCAAAAGUAGGUUCAGACAUAAUGGAAAAUAGCCCCGGAAAAUUUCAAUAUAGUUUACAUAAAGACAAACAUGCCAUCAGUUACUGGGAUGCUGUGAGCCAACAGAGGAUUGAGCAUCA
B10: chr1:145439819:145439820:+_ENSG00000117289_ENST00000369317|hu_hu|FALSE|FALSE (ssRNA)
RNA: GGGAGUUCUACAGUCCGACGAUCUUUCUUUGUCUCUUGAGUUGGCUGGCUCGGGCGGUCAAGAAAAGCCUUCACCCAGUAGUCUACACACCCAUAUUUUCCUUUGAAGGAUGUUCCCAGAGGCCCCUGAGGAAGCUCAAAGCCCAACAGAGGAUUGAGCAUCA
B11: chr1:150192712:150192713:-_ENSG00000143401_ENST00000314136|hu_mus|FALSE|FALSE (ssRNA)
RNA: GGGAGUUCUACAGUCCGACGAUCGCACCAAACUACACCUGUGUAAAAGCAACAAUGUUUUAAUUAUGGGCUAAAAAUGUCUAAUACAUUAAGCAUGAAUUAUAAAAAUCCAGAAUCUAAAUACAGUGCUAGAGAAUUUCACUACAACAGAGGAUUGAGCAUCA
B12: chr15:31385891:31385892:-_ENSMUSG00000039100_ENSMUST00000090227|mus_mus|motif|central (ssRNA)
RNA: GGGAGUUCUACAGUCCGACGAUCAUUCACUCCUAAACAGACACCCCUAGGCCUUAGUCACUCAUUUCCAUCUAAGGUUCGGUAGGAUUGUCAUGAUUACAAAAUGAGGCACUCAGACAGAUAGACAGGAAUGGAGACAUACAUCAACAGAGGAUUGAGCAUCA
B13: chr3:95733387:95733388:+_ENSMUSG00000015749_ENSMUST00000165307|mus_mus|FALSE|FALSE (ssRNA)
RNA: GGGAGUUCUACAGUCCGACGAUCCACACGGGUGUGGGAGAGAAAGAAAAGAAUAGCAAAUGGAGUCCGACGACUUGGGACUAACUCGGCUGCCCCCACCUCCGAGUCCACACACCCGCGCGCGCACACUCGGGCACGCACACACAACAGAGGAUUGAGCAUCA
B14: chr7:7679991:7679992:-_ENSG00000106399_ENST00000396682|hu_hu|hu_hu_hu_mus_False|48_68 (ssRNA)
RNA: GGGAGUUCUACAGUCCGACGAUCUGGGAUGAAUCUUUUCCAGCUUCCCCACGAAGCACACGGGCCGGUCGAUGAAUUGUGGUAACAUGCCGGCGUUGACGCGCGCUUUGGGGAGCUGCAUUAUGUCCUCCAUGAUUCUGCCGCCAACAGAGGAUUGAGCAUCA

In the test the target is T1, UNK ZnF1-3. Put plainly: nsRBNS (natural sequence RNA bind-n-seq); RBNS binding buffer (assumed for nsRBNS): 25 mM Tris pH 7.5, 150 mM KCl, 3 mM MgCl2, 0.01% Triton X-100, 500 ug/ml BSA, 20 U/ml SUPERase-In, 4 C; UNK is unkempt and MSI1 is Musashi-1; names of the RNAs are library labels; protein concentration not given here; high values mean tight binding.
Take B1: the binding signal was 1.35 enrichment R.

In turn, B2 gave a binding signal of 0.588 enrichment R.

The molecule B3 returned a binding signal of 0.672 enrichment R.

The molecule B4 returned a binding signal of 0.478 enrichment R.

As for B5, the binding signal amounted to 0.537 enrichment R.

B6: the binding signal stood at 0.673 enrichment R.

Take B7: the binding signal stood at 1.22 enrichment R.

The molecule B8 registered a binding signal of 0.793 enrichment R.

With B9, the binding signal worked out at 2.28 enrichment R.

In turn, B10 had a binding signal of 0.97 enrichment R.

Take B11: the binding signal is 1.53 enrichment R.

B12 gave a binding signal of 1.25 enrichment R.

With B13, the binding signal was 1.18 enrichment R.

As to B14, the binding signal turned out to be 0.426 enrichment R.
